Where “and” joins values, the source holds several entries; their conditions need not be identical. Identical values can stand only once.
Assays:
[1] = target: T1, wild-type factor Xa (fXa) (human, UniProt P00742 235-488, 11 gamma-carboxyglutamic acid residues (Gla) in the Gla domain, residues 1-45 of SEQ ID NO. 1); assay: fXa chromogenic assay, kinetic fit; FXa + TFPI (FIG. 1A)
[2] = target: T2, fXa derivative (SEQ ID NO: 3) (human, UniProt P00742 80-179; P00742 235-488); assay: SPR, Biacore 3000, fXa derivative immobilized on CM-5 chip
T2 construct: Prep 1 and Prep 2 are two preparations of the same molecule; also called fXa derivative Prep 1; fXa derivative Prep 2
Experimental: A few major plasma proteins, including tissue factor pathway inhibitor (TFPI), antithrombin III (ATIII), α-2-macroglobulin, α-1-antitrypsin, factor VII (fVII), factor X (fX), prothrombin, and factor V (fV), were tested for their binding affinity to a wild-type factor Xa (fXa) and two individual preparations (Prep 1 and Prep 2) of the fXa derivative (SEQ ID NO: 3). The binding experiment was conducted with a Biacore® 3000 with the fXa derivative immobilized on a CM-5 sensor chip according to manufacturer's instruction.

[3] = target: T1, wild-type factor Xa (fXa); assay: fXa chromogenic assay, kinetic fit; FXa + TFPI + fXa derivative (FIG. 1C)
[4] = target: T1, wild-type factor Xa (fXa); assay: fXa chromogenic assay, kinetic fit; FXa + TFPI + fXa derivative (FIG. 1D)
Experimental: (§1) The binding kinetics were determined using three different concentrations of the fXa derivative (0, 1 nM, and 5 nM) and escalating doses of TFPI, up to about 12 nM. fXa chromogenic activity was measured following a 2 hour incubation of fXa (1 nM). Residual fXa activity was measured by cleavage of the peptidyl substrate Spectrozyme-fXa (100 μM).

[5] = target: T1, wild-type factor Xa (fXa); assay: fXa chromogenic activity assay (Spectrozyme-fXa, 100 uM) after 2 h incubation; fXa 0.5 nM
Experimental: as §1, with “was” for “were”, “two” for “three”, “(0.5 nM” for “(0, 1 nM,”, “1.0” for “5”, “the reaction mixture.” for “fXa (1 nM).”, “μM). […] Such inhibition was also significant when TFPI's concentration was at 1 nM.” for “μM).”

[6] = target: T1, wild-type factor Xa (fXa); assay: fXa chromogenic activity assay (Spectrozyme-fXa, 100 uM) after 2 h incubation; fXa 1.0 nM
Experimental: as §1, with “was” for “were”, “two” for “three”, “(0.5 nM” for “(0, 1 nM,”, “1.0” for “5”, “the reaction mixture.” for “fXa (1 nM).”, “μM). […] Such inhibition was also significant when TFPI's concentration was at 1 nM.” for “μM).”

[7] = target: T2, fXa derivative (SEQ ID NO: 3); assay: fXa chromogenic assay, kinetic fit of the reversal of TFPI inhibition; FXa + TFPI + fXa derivative (FIG. 1C)
[8] = target: T2, fXa derivative (SEQ ID NO: 3); assay: fXa chromogenic assay, kinetic fit of the reversal of TFPI inhibition; FXa + TFPI + fXa derivative (FIG. 1D)
Experimental: as §1

[9] = target: T1, wild-type factor Xa (fXa); assay: fXa chromogenic activity assay (Spectrozyme-fXa, 100 uM) after 2 h incubation; fXa 1.0 nM, no SEQ ID NO: 3
Experimental: as §1

[10] = target: T1, wild-type factor Xa (fXa); assay: fXa chromogenic activity assay (Spectrozyme-fXa) after 1 h incubation; fXa 1 nM, TF/PCPS (2 nM TF), no fVIIa
Experimental: (§2) In this study, the interaction of the fXa derivative (SEQ ID NO: 3) with TFPI was characterized by incubating TFPI in the presence or absence of fVIIa/TF. The assay mixture contained fXa (1 nM), fXa derivative (0, 1, or 5 nM), TF/PCPS (2 nM TF), fVIIa (0 or 1 nM) and increasing concentrations of TFPI (0-12 nM). Innovin was used as the source of TF and phospholipids. After a 1 hour incubation period at room temperature, fXa activity was determined by measuring cleavage of the peptidyl substrate, Spectrozyme-fXa (100 μM), and expressed as % control activity in the absence of TFPI. […] The fXa derivative dose dependently reversed the inhibitory effect of TFPI.

[11] = target: T1, wild-type factor Xa (fXa); assay: fXa chromogenic activity assay (Spectrozyme-fXa) after 1 h incubation; fXa 1 nM, fVIIa 1 nM, TF/PCPS (2 nM TF)
Experimental: as §2

[12] = target: T1, wild-type factor Xa (fXa); assay: fXa chromogenic activity assay (Spectrozyme-fXa, 100 uM) after 2 h incubation; fXa 1.0 nM in the presence of the competitor SEQ ID NO: 3 at 1.0 nM
Experimental: as §1

[13] = target: T1, wild-type factor Xa (fXa); assay: fXa chromogenic activity assay (Spectrozyme-fXa, 100 uM) after 2 h incubation; fXa 1.0 nM in the presence of the competitor SEQ ID NO: 3 at 5.0 nM
Experimental: as §1

[14] = target: T1, wild-type factor Xa (fXa); assay: fXa chromogenic activity assay (Spectrozyme-fXa) after 1 h incubation; fXa 1 nM, fVIIa 1 nM, TF/PCPS (2 nM TF), in the presence of the competitor SEQ ID NO: 3 at 1 nM
Experimental: as §2

[15] = target: T1, wild-type factor Xa (fXa); assay: fXa chromogenic activity assay (Spectrozyme-fXa) after 1 h incubation; fXa 1 nM, fVIIa 1 nM, TF/PCPS (2 nM TF), in the presence of the competitor SEQ ID NO: 3 at 5 nM
Experimental: as §2

- Ki [1]: 0.021 nM
- Kd [2]: 0.64 nM and 0.7 nM
- Ki [3]: 0.026 nM
- Ki [4]: 0.033 nM
- IC50 (read off the curve) [5]: ~0.3 nM
- IC50 (read off the curve) [6]: ~0.5 nM
- Kd [7]: 0.07 nM
- Kd [8]: 0.155 nM
- IC50 (read off the curve) [9]: ~0.5 nM
- IC50 (read off the curve) [10]: ~1 nM
- IC50 (read off the curve) [11]: ~1 nM
- IC50 (read off the curve) [12]: ~1 nM
- IC50 (read off the curve) [13]: ~2 nM
- IC50 (read off the curve) [14]: ~2 nM
- IC50 (read off the curve) [15]: ~3 nM
B1: tissue factor pathway inhibitor (TFPI) (other)
chain: not shown
